Assay results reported in PubChem BioAssay AID1346428 (National Center for Advancing Translational Sciences (NCATS), 2018).
The whole screen tested about 48,000 compounds, of which about 1,200 (2.5%) were called active. About 2% were inconclusive and are not listed.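 The calls were made as follows: active = activation of at least 60% and not above a set upper limit (about 1 call in 100 departs from these limits); inconclusive = activation of 40% to 60%, or above that upper limit; inactive = activation under 40%.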 The list shows a part of the results.

What follows are compounds tested against Probable G-protein coupled receptor 32 (Homo sapiens) (UniProt O75388) (assay: qHTS for Agonists of Human Resolvin D1 Receptor DRV1). Conditions: CHO-K1 GPR32 beta-arrestin PathHunter luminescence, 90 min; at 76.9 µM; active compounds read high; zero percent set by DMSO-only wells.
UniProt O75388, sequence (O75388 whole entry, looked up, the tested form may be a part): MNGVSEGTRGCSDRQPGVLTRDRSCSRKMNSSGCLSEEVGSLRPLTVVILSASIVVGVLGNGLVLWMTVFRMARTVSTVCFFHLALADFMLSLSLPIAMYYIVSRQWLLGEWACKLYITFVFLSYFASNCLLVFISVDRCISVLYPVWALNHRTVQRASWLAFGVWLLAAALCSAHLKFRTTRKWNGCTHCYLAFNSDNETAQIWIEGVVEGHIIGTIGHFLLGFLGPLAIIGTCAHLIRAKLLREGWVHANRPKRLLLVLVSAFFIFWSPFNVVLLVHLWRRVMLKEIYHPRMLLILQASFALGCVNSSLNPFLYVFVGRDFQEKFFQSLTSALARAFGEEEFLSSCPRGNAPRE
Outline: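 PathHunter enzyme-fragment complementation, CHO-K1 GPR32 stable line; 2,500 cells/well, overnight attach; cpd 90 min 37 °C 5% CO2; detection reagent 1 h RT; chemiluminescence. DMSO = EC0.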
With `CCCS(=O)(=O)Nc1cc(-c2cn3ccc(C)cc3n2)ccc1C` the activation was inactive: -11.9%. With `Nc1nc2c(nc(Br)n2C2OC3COP(=O)(O)O[C@@H]3C2O)c(=O)[nH]1` (some centres not stated) the activation was inactive: -3.86%. In the case of `CC(Sc1nc(=O)cc(N)n1CCc1ccccc1)C(=O)Nc1cccc(Cl)c1` (configuration not stated), the activation is reported as inactive: -2.34%. `COc1ccc(-n2c(=O)c3ccccc3n(Cc3ccccc3Cl)c2=O)cc1` was tested, and the activation was inactive: -2.67%. For `Fc1ccc(-c2nn(-c3ccc(Cl)cc3)c3c2cnc2ccc(F)cc23)cc1`, the activation was inactive: 16.8%. With `CCC(C(=O)NCCc1cc(OC)ccc1OC)n1nc(C)c2c(C)n(-c3ccccc3)nc2c1=O` (configuration not stated) the activation was inactive: -6.86%. For `CCOc1ccccc1NC(=O)Cn1c(=O)n(Cc2cccs2)c(=O)c2cccnc21`, the activation was inactive: -28.8%. `Cc1ccc(S(=O)(=O)c2nnn3c2nc(N2CCOCC2)c2sccc23)cc1C` was tested, and the activation was inactive: -20%. For `Cc1ccc(Nc2sc(C(=O)c3ccc(F)cc3)c(N)c2S(=O)(=O)c2ccc(C)cc2)cc1`, the activation was inactive: -33.2%. For `COc1ccccc1N1CCN(S(=O)(=O)c2c(C)sc3ncn(CC(=O)Nc4ccc(C)cc4Br)c(=O)c23)CC1`, the activation was inactive: 6.87%. In the case of `COc1ccc(C(=O)Nc2nc3n(n2)C(c2ccc(Cl)cc2)C=C(c2ccccc2)N3)cc1OC` (configuration not stated), the activation is reported as inactive: 6.64%. With `Cc1ccc(C)c(CN2C(=O)c3ccccc3S(=O)c3ccc(C(=O)N4CCOCC4)cc32)c1` (configuration not stated) the activation was inactive: -10.9%. In the case of `CCOC(=O)C1=C(CN2CCN(C)CC2)NC(=O)NC1c1ccc(F)cc1` (configuration not stated), the activation is reported as inactive: 2.99%. `CC(C)c1ccc(OCC(=O)NCC(c2ccc(Cl)cc2)N2CCOCC2)cc1` (configuration not stated) was tested, and the activation was inactive: -4.72%. `CCN(Cc1ccccc1)C(=O)Cn1c(=O)n(-c2cccc(C)c2)c(=O)c2c1c1cc(OC)ccc1n2C` was tested, and the activation was inactive: -6.88%. For `CC(C)NC(=O)C1CCN(C(=O)c2cnn(-c3ccccc3)c2-n2cccc2)CC1`, the activation was inactive: 1.75%. In the case of `COc1ccc(N2C(N)=C(C#N)C(c3cc(CN4CCOCC4)cs3)C3=C2CCCC3=O)cc1` (configuration not stated), the activation is reported as inactive: -1.43%. In the case of `Cc1nc2c(C(=O)NCCc3ccc(Cl)cc3)cnn2c(C)c1Cc1ccc(F)cc1`, the activation is reported as inactive: -42.7%. With `COc1ccc(NS(=O)(=O)c2ccc(-n3cccn3)cc2)cc1OC` the activation was inactive: 14.2%. `CN(C(=O)c1cc2nc(-c3ccc4c(c3)OCO4)cc(C(F)(F)F)n2n1)c1ccc(OC(F)(F)F)cc1` was tested, and the activation was inactive: 7.88%. `Cn1nc(C(=O)NCCc2ccc(Cl)cc2)c2c1-c1ccccc1SC2` was tested, and the activation was inactive: -8.31%. For `CCCSc1nc2sc3c(c2c(=O)n1-c1ccc(C)c(Cl)c1)CCN(C(C)=O)C3`, the activation was inactive: -20.3%. In the case of `CSc1nnc2n(-c3cccc(C)c3)c(=O)c3c4c(sc3n12)CCCC4`, the activation is reported as inactive: 24.4%. For `Cc1cccn2c(=O)cc(COc3cccc(NC(=O)c4cccc(Cl)c4)c3)nc12`, the activation was inactive: -15.9%. With `O=C(Nc1ccccc1F)c1oc2ccccc2c1NC(=O)c1c(F)cccc1F` the activation was inactive: 14.5%. With `Cc1cccc(-c2nnc(SCC(=O)N3CCCCC3)o2)c1` the activation was inactive: 0.219%. With `COc1ccc(S(=O)(=O)c2c(O)c(C)cc(NC(=O)c3ccccc3)c2C(C)C)cc1` the activation was inactive: -27.2%. In the case of `COc1ccccc1N1CCN(C(=O)c2ccc(Nc3nc4ccccc4n4nnnc34)cc2)CC1`, the activation is reported as inactive: -17.8%. `CCn1c(=O)n(CC)c2cc(N3CCCC3)c(NC(=O)Nc3cc(C)cc(C)c3)cc21` was tested, and the activation was inactive: -26.3%. With `Cc1ccc(CNC(=O)c2nn(C)c3c2CSc2ccc(C)cc2-3)cc1` the activation was inactive: -5.56%. In the case of `COC(=O)c1ccccc1NC(=O)c1ccc(=O)n(Cc2cccc(C)c2)c1`, the activation is reported as inactive: -1.29%. `Cc1ccc(CCNC(=O)CSCc2nc(-c3ccc(C)cc3)oc2C)cc1` was tested, and the activation was inactive: 22%. In the case of `N#Cc1cccc(NC(=O)C2CCN(c3nc(-c4ccc(Cl)cc4)no3)CC2)c1`, the activation is reported as inactive: 18.1%. With `COc1cc(-c2nc(C(N)=O)c3c(n2)n(-c2cccc(C)c2)c(=O)n3C)cc(OC)c1OC` the activation was inactive: -1.79%. With `CCn1c(CN2CCCCC2)nc2cc(NC(=O)c3cccc([N+](=O)[O-])c3)ccc21` the activation was inactive: -8.64%. With `Cc1c(C(=O)Nc2cccc(-c3nc4ccccc4s3)c2)oc2ccc(F)cc12` the activation was inactive: 6.23%. For `CC(C)c1ccc(NC(=O)Cn2c3ncccc3c(=O)n2-c2ccccc2)cc1`, the activation was inactive: 3.74%. For `CCOc1ccc(-c2nnc(SCC(=O)Nc3cc(C)ccc3OC)o2)cc1`, the activation was inactive: 30%. In the case of `CCOC(=O)c1c(NC(=O)c2ccc(S(=O)(=O)N(CC)CC)cc2)sc2c1CCCCC2`, the activation is reported as inactive: -14.5%. For `CCc1nn(CC(=O)NCCOC)c(=O)c2cc3cc(F)ccc3n12`, the activation was inactive: -1.26%. With `CCN(CC)C(=O)CSc1nc2cc3c(cc2c(=O)n1CCCC(=O)NCc1ccc(OC)cc1)OCO3` the activation was inactive: -10.9%. For `Cc1ccc(CCNC(=O)CN(c2ccc(C(C)C)cc2)S(=O)(=O)c2c(C)nn(C)c2C)cc1`, the activation was inactive: -16.9%. For `CN(C)c1ccc(C(CNS(=O)(=O)c2ccc(F)cc2F)N2CCOCC2)cc1` (configuration not stated), the activation was inactive: -23.9%. In the case of `CCc1ccc(CN(Cc2cn[nH]c2-c2ccc(OC)cc2)C(=O)Nc2ccc(Br)cc2)cc1`, the activation is reported as inactive: 1.75%. In the case of `CCn1c(SCC(=O)Nc2c(C)cccc2C)nnc1-c1nonc1NC(C)=O`, the activation is reported as inactive: -32.8%. In the case of `O=C(NCCC1=CCCCC1)c1ccc2c(c1)N(Cc1ccccc1)C(=O)c1ccccc1S2=O` (configuration not stated), the activation is reported as inactive: -0.22%. With `Cc1ccc(C(=O)N2CCCCC2CCN2CCCCC2)cc1` (configuration not stated) the activation was inactive: -3.53%. `COc1ccc(-c2csc(-c3c(N)c(C(=O)c4ccccc4)n4ccccc34)n2)cc1OC` was tested, and the activation was inactive: -5.33%. In the case of `Cc1ccc(O)cc1`, the activation is reported as inactive: -2.27%. With `CCS(=O)(=O)c1cccc(C(=O)Nc2ccc(-c3nc4ccccc4s3)c(O)c2)c1` the activation was active: 61%. With `Cc1cccc(NC(=O)Cn2c(=O)c3cccn3c3ccccc32)c1C` the activation was inactive: -5.56%. For `COc1cc(NS(=O)(=O)c2cc(Br)cc3c2N(C(=O)C2CC2)CC3)cc(OC)c1`, the activation was inactive: 3.42%.
